Measurements reported in a collection of fitness landscapes (doi:10.1126/science.1257360).
Some of the results follow.

B1: PhoQ; a variant is named by its letters at X, in order, P23837 (parent)
chain: MKKLLRLFFPLSLRVRFLLATAAVVLVLSLAYGMVALIGYSVSFDKTTFRLLRGESNLFYTLAKWENNKLHVELPENIDKQSPTMTLIYDENGQLLWAQRDVPWLMKMIQPDWLKSNGFHEIEADVNDTSLLLSGDHSIQQQLQEVREDDDDAEMTHSVAVNVYPATSRMPKLTIVVVDTIPVELKSSYMVWSWFIYVLSANLLLVIPLLWVAAWWSLRPIEALAKEVRELEEHNRELLNPATTRELTSLVRNLNRLLKSERERYDKYRTTLTDLTHSLKTPLXXLQXXLRSLRSEKMSVSDAEPVMLEQISRISQQIGYYLHRASMRGGTLLSRELHPVAPLLDNLTSALNKVYQRKGVNISLDISPEISFVGEQNDFVEVMGNVLDNACKYCLEFVEISARQTDEHLYIVVEDDGPGIPLSKREVIFDRGQRVDTLRPGQGVGLAVAREITEQYEGKIVAGESMLGGARMEVIFGRQHSAPKDE

Variants of: B1
Test: enrichment ratio after two sorts for PhoP signalling (ratio (wild type AVST 3.29)); higher = more functional
Details: with PhoP (E. coli)

Variant	enrichment ratio
CMLS	≤ 0.25
LKFN	≤ 0.25
SQGN	0.358
TYVL	≤ 0.25
TMYP	≤ 0.25
FVLL	4.64
QIRS	≤ 0.25
TAYS	6.09
SFDF	≤ 0.25
GFIQ	≤ 0.25
YMKY	≤ 0.25
MAKW	≤ 0.25
TLQW	5.79
TNHD	≤ 0.25
IGGD	≤ 0.25
PCSD	0.281
DRKD	≤ 0.25
PAHD	≤ 0.25
GLRN	≤ 0.25
SGCQ	6.02
GAPW	≤ 0.25
GLES	≤ 0.25
LVWN	≤ 0.25
RETG	≤ 0.25

Variant	enrichment ratio
GDPV	≤ 0.25
NPAT	≤ 0.25
SAIT	≤ 0.25
FFCW	≤ 0.25
VAHQ	≤ 0.25
MPHP	≤ 0.25
FLIT	≤ 0.25
WPQA	≤ 0.25
ITYL	≤ 0.25
QWCP	≤ 0.25
YGGW	≤ 0.25
KPFR	0.301
LLAH	≤ 0.25
AWQV	≤ 0.25
IEHP	≤ 0.25
TDGP	≤ 0.25
TEKF	≤ 0.25
MKPE	≤ 0.25
EMSA	≤ 0.25
EKAM	≤ 0.25
ISRW	≤ 0.25
HKIL	≤ 0.25
TPRL	≤ 0.25
VALL	10.5

Variant	enrichment ratio
VVEL	≤ 0.25
FYCV	0.298
FIQF	≤ 0.25
LRND	≤ 0.25
QGQK	≤ 0.25
CQVF	≤ 0.25
RIVL	≤ 0.25
FQID	≤ 0.25
KVWF	≤ 0.25
PPMH	≤ 0.25
LQDY	≤ 0.25
NLYA	≤ 0.25
QHKC	≤ 0.25
KTQF	≤ 0.25
WSWS	≤ 0.25
IWFG	≤ 0.25
EEMA	≤ 0.25
IKNH	≤ 0.25
YEVE	≤ 0.25
PMMF	≤ 0.25
QQVM	≤ 0.25
SIAF	15.1
ANQF	1.01
ANLF	10.7

Variant	enrichment ratio
NNCI	≤ 0.25
HRLF	≤ 0.25
QYSL	≤ 0.25
RNAH	≤ 0.25
AGQI	≤ 0.25
FVCW	≤ 0.25
GSLR	≤ 0.25
CSIF	≤ 0.25
VHCY	≤ 0.25
WEAM	≤ 0.25
RYYG	≤ 0.25
TKRA	≤ 0.25
PAIN	≤ 0.25
NQLH	≤ 0.25
KWPC	≤ 0.25
RKCP	≤ 0.25
FREL	≤ 0.25
LYPQ	≤ 0.25
EVKA	≤ 0.25
AAIV	8.6
SHGG	≤ 0.25
ELHH	≤ 0.25
FTWA	≤ 0.25
QPFH	≤ 0.25

Variant	enrichment ratio
NKAW	≤ 0.25
LVCG	≤ 0.25
YMND	≤ 0.25
IDSD	≤ 0.25
YEAC	≤ 0.25
IRIR	≤ 0.25
AFKA	≤ 0.25
VPSG	≤ 0.25
MQGN	7.37
YVEA	≤ 0.25
VQAI	≤ 0.25
ERLN	≤ 0.25
GPFH	≤ 0.25
NDFT	≤ 0.25
EERV	≤ 0.25
NMNM	≤ 0.25
SVYM	0.325
YLII	≤ 0.25
IEQL	≤ 0.25
WGCE	≤ 0.25
KRAY	≤ 0.25
HLMR	≤ 0.25
DLTM	≤ 0.25
GYPC	≤ 0.25

Variant	enrichment ratio
EAAS	≤ 0.25
GFLI	≤ 0.25
RKWS	≤ 0.25
HRIK	≤ 0.25
ALRT	≤ 0.25
AQFK	≤ 0.25
KYGQ	≤ 0.25
QHSN	≤ 0.25
TYAF	≤ 0.25
MHNF	≤ 0.25
DICE	≤ 0.25
KQFL	≤ 0.25
KKAA	≤ 0.25
EAIM	≤ 0.25
DDFN	≤ 0.25
KRMN	≤ 0.25
ECSL	0.598
QFAK	≤ 0.25
NNLH	≤ 0.25
LYAE	≤ 0.25
PCSQ	≤ 0.25
EAYF	≤ 0.25
YRPF	≤ 0.25
KMTY	≤ 0.25

Variant	enrichment ratio
KYKG	≤ 0.25
WLPY	≤ 0.25
LWSY	≤ 0.25
LMKT	≤ 0.25
MTKM	≤ 0.25
RIKQ	≤ 0.25
PGKH	≤ 0.25
DHMK	≤ 0.25
GYRP	≤ 0.25
SYKC	≤ 0.25
WQCN	≤ 0.25
RGIQ	≤ 0.25
AWWG	≤ 0.25
HKYL	≤ 0.25
MCTC	≤ 0.25
QDIR	≤ 0.25
TRYH	≤ 0.25
MVLR	≤ 0.25
AGDD	≤ 0.25
SYTH	≤ 0.25
TILI	≤ 0.25
ESCS	≤ 0.25
GLSV	3.04
VSLH	0.279

Variant	enrichment ratio
MDMY	≤ 0.25
YIYG	≤ 0.25
IPDR	≤ 0.25
WHAD	≤ 0.25
IFRT	≤ 0.25
MRRE	≤ 0.25
NHRI	≤ 0.25
WLTP	≤ 0.25
QLNM	≤ 0.25
PFCH	≤ 0.25
FWPW	≤ 0.25
WALL	8.8
SFNK	≤ 0.25
GGWL	≤ 0.25
PFNG	≤ 0.25
LTHL	3.35
NKLR	≤ 0.25
PDTA	≤ 0.25
RWLM	≤ 0.25
IAHT	≤ 0.25
GCLQ	3.84
EGGD	≤ 0.25
ADVC	5.18
VWRR	≤ 0.25

Variant	enrichment ratio
RYTC	≤ 0.25
LNEY	1.11
YEGY	≤ 0.25
WIAI	≤ 0.25
WFNV	≤ 0.25
QAHL	16.7
FLLV	0.38
NPGS	≤ 0.25
EFIS	≤ 0.25
TPHK	≤ 0.25
GTYP	≤ 0.25
DNLC	≤ 0.25
KRDW	≤ 0.25
PWFE	≤ 0.25
YIFY	≤ 0.25
DQSP	≤ 0.25
QLCN	≤ 0.25
YEII	≤ 0.25
MRVF	≤ 0.25
DVYF	≤ 0.25
WQEK	≤ 0.25
TVQI	11
GDKT	≤ 0.25
SLLD	0.296

Variant	enrichment ratio
KGPI	≤ 0.25
QHCV	≤ 0.25
NVPE	≤ 0.25
PLRV	≤ 0.25
NWYY	≤ 0.25
ASRS	≤ 0.25
PCSC	≤ 0.25
VAPV	≤ 0.25
VLCK	≤ 0.25
WTKK	≤ 0.25
TAKI	≤ 0.25
TFMV	1.01
FPVF	≤ 0.25
YSNN	0.417
ACPQ	≤ 0.25
DRFH	≤ 0.25
GMRH	≤ 0.25
QKTE	≤ 0.25
SMCQ	7.8
KGPH	≤ 0.25
MGGS	17.9
IFLY	≤ 0.25
TEIK	≤ 0.25
HHMI	≤ 0.25

Variant	enrichment ratio
FKKG	≤ 0.25
SKVN	1.04
TDDP	≤ 0.25
PFRW	≤ 0.25
TPSV	≤ 0.25
NFEY	≤ 0.25
ENMF	≤ 0.25
QRHE	≤ 0.25
AQGI	1.32
AELW	11.4
SNTG	9.7
TTEF	3.01
STLE	5.39
HFCV	≤ 0.25
SARC	≤ 0.25
INDY	≤ 0.25
DCFG	≤ 0.25
PPWV	≤ 0.25
MNIS	≤ 0.25
SHHR	≤ 0.25
FTCC	≤ 0.25
MGVY	1.34
ECDF	≤ 0.25
DCEY	≤ 0.25

Variant	enrichment ratio
FYAF	≤ 0.25
AKPF	≤ 0.25
KMPG	≤ 0.25
SDSL	0.277
ITGT	≤ 0.25
QRVN	≤ 0.25
YFQF	≤ 0.25
IGGF	≤ 0.25
YYRD	≤ 0.25
YTHK	2.21
EQIN	≤ 0.25
RWYN	≤ 0.25
DRRL	≤ 0.25
FVWN	≤ 0.25
WWQL	≤ 0.25
NGRA	≤ 0.25
WPRN	≤ 0.25
GENV	≤ 0.25
GKQG	≤ 0.25
WKSH	≤ 0.25
ADVH	0.679
FLCQ	≤ 0.25
TFMR	≤ 0.25
YKAD	≤ 0.25

Variant	enrichment ratio
WAFF	≤ 0.25
MSAN	9.44
GYPT	≤ 0.25
FLYP	≤ 0.25
QECH	≤ 0.25
YKRG	≤ 0.25
NTVH	≤ 0.25
PHMC	≤ 0.25
TEAC	25.6
DNWA	≤ 0.25
LLGN	≤ 0.25
AIVP	0.273
YMGN	≤ 0.25
PQKS	≤ 0.25
RAQF	≤ 0.25
PGAH	≤ 0.25
NSRL	≤ 0.25
FKDC	≤ 0.25
